# Hit rate of the full screen: of about 52,000 compounds, about 4,300 (8.3%) were called active. Rule as the data show it: active = survival mostly below about 52% (no sharp cut-off); inactive = mostly above about 56%. The list shows a part of the results.
# System: DeltatarO mutant
# Experiment: S. aureus survival, RN4220 and DeltatarO strains – OD600, teichoic acid synthesis inhibitors, primary screen (AID 463173)
# Details: S. aureus RN4220 wild type/DeltatarO growth, OD600, 18 h, hits give low values, screened at 18.75 µg/mL (by protocol)
row,SMILES,survival
1,O=C(CS(=O)(=O)c1cccc2nsnc12)N1CCN(c2ccccc2F)CC1,inactive: 85%
2,O=C(Nc1ccc(Cl)cc1)C1CCC(CNS(=O)(=O)c2ccc(Br)s2)CC1 (stereo unspecified),inactive: 86%
3,Cc1cc(NC(=O)c2ccc3c(c2)N(Cc2cccc(Cl)c2)C(=O)c2ccccc2S3(=O)=O)ccc1Br,inactive: 90%
4,COc1ccccc1CNc1nc2ccc(C)cc2n2nnnc12,active: 17%
5,Cc1nn(-c2ccccc2)c(OC(=O)c2ccccc2Br)c1S(=O)(=O)c1ccccc1,inactive: 83%
6,O=C1CC(c2c(Cl)cccc2Cl)c2c(ccc3ccccc23)N1 (stereo unspecified),inactive: 73%
7,CC1=C(C(=O)Nc2ccccc2Cl)C(c2cccc(O)c2)n2ncnc2N1 (stereo unspecified),inactive: 124%
8,COc1ccc(NC(=O)C2=CC(c3ccco3)=NS(=O)(=O)N2C)cc1OC,inactive: 92%
9,CCc1ccccc1NC(=O)CCCSc1nc(-c2ccco2)cc(C(F)(F)F)n1,inactive: 63%
10,CCN(c1ccccc1)S(=O)(=O)c1nnc(NC(=O)c2ccccc2OC)s1,inactive: 47%
11,CCN(CC)c1ccc(CNCCCSc2nnnn2C)cc1,inactive: 88%
12,COc1ccc(CNC(=O)c2cc(Nc3ccccc3C)nc3ccccc23)cc1,inactive: 85%
13,COCCNc1nc2c(c(=O)n(C)c(=O)n2C)n1Cc1c(F)cccc1Cl,inactive: 57%
14,Cc1oc2ncn(C)c(=O)c2c1C(=O)N1CCN(c2cccc(C(F)(F)F)c2)CC1,inactive: 71%
15,COc1ccc(Cl)cc1NC(=O)CSc1cn(CC(=O)N2CCCCC2)c2ccccc12,inactive: 61%
16,CCOc1ccc(CN2C(=O)c3ccccc3Sc3ccc(C(=O)NCc4ccco4)cc32)cc1,inactive: 82%
17,Cc1oc(-c2cccc(Cl)c2)nc1CN1CCC(C(=O)NC(C)c2ccccc2)CC1 (stereo unspecified),inactive: 85%
18,COc1cc(C2C(=O)N(C3CCCCC3)CC(=O)N2CCc2ccccc2)ccc1OC(C)C (stereo unspecified),inactive: 80%
19,CCCCN(C)CCCNC(=O)C1CCN(S(=O)(=O)CCC)CC1,inactive: 84%
20,O=C(Nc1ccccc1C(F)(F)F)c1ncoc1-c1ccco1,inactive: 86%
21,COc1ccc(-c2cc(C(F)(F)F)nc(SCCC(=O)Nc3ccc(NC(C)=O)cc3)n2)cc1,inactive: 61%
22,CN(C(=O)Cn1nnc2ccccc2c1=O)C1CCCCC1,inactive: 94%
23,COC(=O)C(C)Sc1ccc2nnc(CCNS(=O)(=O)c3ccc(C)cc3)n2n1 (stereo unspecified),inactive: 56%

row,SMILES,survival
1,COc1ccc2oc(=O)c(C(=O)Nc3ccc(O)cc3)cc2c1,inactive: 98%
2,Cc1ncc(CO)c2c1Oc1nc(-c3ccccc3Cl)nc(SCc3ccccc3F)c1C2,inactive: 72%
3,COCCCNC(=O)Cn1cnc2sc(C)c(S(=O)(=O)N3CCC(C)CC3)c2c1=O,inactive: 69%
4,CC(C)NC(=O)c1ccc(Cn2c(SCC(N)=O)nc3ccccc3c2=O)cc1,inactive: 93%
5,Cc1ccc(CCNC(=O)c2ccc3nc(N4CCC(C)CC4)sc3c2)cc1,inactive: 91%
6,CCOc1ccc(C2CC(=O)Nc3nc(SCc4ccccc4C)[nH]c(=O)c32)cc1OC (stereo unspecified),inactive: 103%
7,O=c1n(Cc2ccccc2Cl)c2ccccc2c2nc(-c3ccccc3)nn12,inactive: 78%
8,CCCn1cnc2scc(-c3ccccc3)c2c1=O,inactive: 92%
9,Cc1nn2c(=O)cc(COC(=O)c3ccc(NC(=O)COc4ccc(C)c(C)c4)cc3)nc2s1,inactive: 116%
10,O=C(NC1CC(=O)N(c2ccc(F)cc2)C1)c1ccco1 (stereo unspecified),inactive: 95%
11,COc1ccccc1C1CC(=O)NC(C)=C1C(=O)OC1CCCCCC1 (stereo unspecified),inactive: 86%
12,N#Cc1cccc(C(c2nnnn2Cc2ccccc2)N2CCCC2)c1 (stereo unspecified),inactive: 103%
13,O=C(O)C1CCN(C(=O)c2ccc(-c3ccccc3)cc2)CC1,inactive: 108%
14,CC(=O)Nc1nc(-c2cccs2)nc2c1c(=O)oc1ccccc12,inactive: 92%
15,O=C(NCc1cccnc1)c1nn(-c2ccc(Cl)cc2)nc1CO,inactive: 93%
16,COc1cc(Cl)c(C)cc1Nc1nc2ccccc2c2nnc(C)n12,inactive: 124%
17,COc1ccc2nc(N(Cc3cccnc3)C(C)=O)sc2c1,inactive: 89%
18,COc1ccc(C2CC(=O)N3CN(C4CCCCC4)CSC3=C2C#N)c(OC)c1 (stereo unspecified),inactive: 91%
19,CC1=C(C)C/S(=N\S(=O)(=O)c2ccc(Cl)cc2)N(S(=O)(=O)c2ccc(Cl)cc2)C1 (stereo unspecified),inactive: 64%
20,COC(=O)c1ccc(NC(=O)CSc2ccc(-c3sc(-c4ccccc4)nc3C)nn2)cc1,active: 56%
21,CCC(Oc1ccccc1-c1nnc(-c2ccccc2)o1)C(=O)Nc1ccc(C(C)=O)cc1 (stereo unspecified),inactive: 112%
22,COC(=O)c1cc2oc(C)cc2n1Cc1ccc(Br)cc1F,inactive: 75%
23,CCc1ccc(-n2c(=O)c3cccnc3n2CC(=O)NCc2ccccc2)cc1,inactive: 90%
